PubChem BioAssay AID651820 (National Center for Advancing Translational Sciences (NCATS), 2012)
Several values for one entry are separate records, joined by “and”; a condition that tells them apart may be missing. Equal values may be shown once. Hit rate of the full screen: of about 340,000 compounds, about 12,000 (3.5%) were called active. The inconclusive results got no clear call from the source; some entries with a clear call stand among them for comparison. Calls come from the whole dose curve; as a rule, active = well fitted inhibition curve with a large enough effect; inconclusive = small, poorly fitted or top-dose-only effect, or another doubt; inactive = no such curve, though single readings can be large or run the other way. Potencies beside an inconclusive call are fits to weak or partial responses and may not hold up.
% is set by controls: 0 for no effect and ±100 for the full control effect; potency is the fitted concentration of half-maximal effect; tags give direction and shape of the fitted curve.

Assay: qHTS Assay for Inhibitors of Hepatitis C Virus (HCV)
Details: Huh7.5.1 HCVcc-Cre (HCVcc is cell-culture hepatitis C virus) infection, luciferase reporter, 44 h; activity change, negative = inhibition: at 41.8 µM (top of the series) unless noted
Method in brief: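 Antiviral activity was scored by luciferase reporter output from cells infected with HCVcc-Cre (~0.5 moi) in presence of compound, 44 h infection period, cells seeded 1,000/well 4 h prior.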
For `Cc1ccc(S(=O)(=O)c2c(N)n(-c3ccccc3)c3nc4ccccc4nc23)cc1`, the activity change, negative = inhibition was inconclusive: -62.3% [inhibitor].
In the case of `Cc1ccccc1-[n+]1c(-c2ccccc2)cc(-c2ccccc2)cc1-c1ccccc1`, the Potency is reported as inconclusive: 6.31 µM [inhibitor, partial curve].
For `COc1ccc(CCNC(=O)C2(C)CCC(=O)N2Cc2ccc(F)cc2Cl)cc1OC` (stereo not given), the Potency was inconclusive: 3.55 µM [inhibitor, partial curve].
With `Cc1nc(COc2ccccc2Cl)sc1-c1ccnc(N)n1` the Potency was inconclusive: 22.4 µM [inhibitor, single point].
With `Cc1csc2nc(O)c(C(=O)NC3CCCCC3C)c(=O)n12` (stereo not given) the activity change, negative = inhibition was inconclusive: -45.2% [inhibitor].
For `CN(Cc1ccccc1)C(=O)CN1CCN(C(c2ccccc2)c2ccccc2)CC1`, the Potency was inconclusive: 31.6 µM [inhibitor, single point].
In the case of `COc1ccc(N2CCN(CC(=O)Nc3ncc(C)s3)CC2)cc1`, the “activity change, negative = inhibition” value is reported as inactive: -19.1%.
In the case of `COc1ccc2oc(=O)c(-c3csc(Nc4ccc(O)cc4)n3)cc2c1`, the Potency is reported as active: 11.2 µM.
With `S=C(NCCN1CCOCC1)N1CCN(c2cccc(Cl)c2)CC1` the Potency was inconclusive: 10 µM [inhibitor, single point].
For `COC(=O)c1cc(Br)c(=O)n(CCN2CCCC2)c1`, the “activity change, negative = inhibition” value was inactive: 0.576%.
In the case of `Cc1cc(C)c(C(=O)COC(=O)c2cc([N+](=O)[O-])ccc2NCCO)cc1C`, the Potency is reported as inconclusive: 0.501 µM [inhibitor, full curve, poor fit].
With `Cc1nn(CC(=O)N2CCN(c3ccccn3)CC2)c(=O)c2cc3sccc3n12` the Potency was inconclusive: 31.6 µM [inhibitor, single point].
For `O=C(NCc1ccccc1)c1cnc(Cl)c(Cl)c1`, the “activity change, negative = inhibition” value was inactive: 14.7%.
For `Cc1cccc(NNC(=O)c2c(F)cccc2Cl)c1`, the Potency was inconclusive: 2.82 µM [inhibitor, single point].
For `Cc1ccccc1CN(C)Cc1cc(=O)oc2c(C)c(C)ccc12`, the Potency was inconclusive: 31.6 µM [inhibitor, single point].
For `CCOc1ccccc1NC(=O)C(NCCc1ccc(OC)cc1)c1ccccc1` (stereo not given), the Potency was inconclusive: 11.2 µM [inhibitor, partial curve].
With `CCn1c(C(=O)N2CCC(C(=O)N3CCN(c4ccccn4)CC3)CC2)cc2sccc21` the Potency was inconclusive: 11.2 µM [inhibitor, single point] and inconclusive: 5.62 µM [inhibitor, partial curve].
With `CCCC(=O)N/C(N)=N/c1nc(C)c2ccccc2n1` the Potency was inconclusive: 6.31 µM [inhibitor, partial curve].
For `O=C(c1ccccc1Cc1ccccc1)N1CCN(S(=O)(=O)c2ccccc2[N+](=O)[O-])CC1`, the “activity change, negative = inhibition” value was inactive: 17.5%.
With `CCCCc1oc2c(c(=O)c1C)C(=O)CC(c1ccccc1)C2` (stereo not given) the Potency was inconclusive: 8.91 µM [inhibitor, partial curve].
With `NC(=O)c1cccc(-c2cnc(N)c(C(=O)c3cccnc3)n2)c1` the Potency was inconclusive: 5.62 µM [inhibitor, single point].
In the case of `COc1ccc(C(=O)COC(=O)C2CCN(S(=O)(=O)c3cccc4cccnc34)CC2)cc1`, the “activity change, negative = inhibition” value is reported as inactive: 14.4%.
In the case of `Cc1cccc(NC(=O)COc2nsnc2N2CCOCC2)c1`, the Potency is reported as inconclusive: 28.2 µM [inhibitor, single point].
For `CCOC(=O)c1c(NC(NC(C)=O)C(Cl)(Cl)Cl)sc2c1CCCC2` (stereo not given), the Potency was active: 10 µM.
For `Cc1cc2cc(CNC(=O)c3ccc4c(c3)OCO4)ccc2n1C`, the Potency was inconclusive: 3.98 µM [inhibitor, full curve, poor fit].
With `COc1ccccc1N=Nc1c(C)noc1C` the Potency was inconclusive: 12.6 µM [inhibitor, partial curve].
With `Cc1ccc(CN2CCNC(=O)C2CC(=O)NCc2cc(C)n(C)n2)cc1` (stereo not given) the “activity change, negative = inhibition” value was inactive: 9.15%.
In the case of `CCC(Cc1ccccc1)NC(=O)CCn1cccc1` (stereo not given), the Potency is reported as inconclusive: 31.6 µM [inhibitor, partial curve, poor fit].
With `CCOc1cc(CNCc2ccc(C(=O)O)cc2)ccc1OC` the “activity change, negative = inhibition” value was inactive: 13.3%.
For `COC(=O)[C@@]12CCCCN1[C@H](c1ccc(-c3ccc(F)cc3)c(OC)c1)[C@@H]1C(=O)N(C)C(=O)[C@@H]12`, the Potency was inconclusive: 31.6 µM [inhibitor, single point].
With `Cc1ccc(-c2noc(CCCC(=O)NC3CCCC3)n2)cc1` the Potency was inconclusive: 25.1 µM [inhibitor, partial curve].
For `CN(C)C(=O)c1ccc(Nc2nnc(-c3ccc(O)cc3)c3ccccc23)cc1`, the Potency was inconclusive: 31.6 µM [inhibitor, single point].
With `O=C(NN=Cc1ccc(N(CCCl)CCCl)cc1)c1cccnc1` the Potency was inconclusive: 11.2 µM [inhibitor, partial curve].
In the case of `Cc1ccc(S(=O)(=O)N/N=C/c2ccc(C(=O)O)cc2)cc1`, the “activity change, negative = inhibition” value is reported as inactive: 19.3%.
In the case of `CCOc1ccc(N(CC(=O)N/N=C/c2cc([N+](=O)[O-])ccc2Cl)S(C)(=O)=O)cc1`, the Potency is reported as inconclusive: 11.2 µM [inhibitor, single point].
In the case of `COc1ccc(CC(=O)Nc2nc3ccccc3s2)cc1S(=O)(=O)N1CCOCC1`, the Potency is reported as active: 11.2 µM.
With `C=CCn1c(SCC#N)nc2ccccc2c1=O` the Potency was inconclusive: 12.6 µM [inhibitor, single point].
In the case of `COc1ccc(Cn2c(SCC(=O)NCc3ccco3)nc3ccsc3c2=O)cc1`, the Potency is reported as active: 2.51 µM.
In the case of `COc1ccc(CCNC(=O)c2sc(=S)n(C)c2N)cc1`, the “activity change, negative = inhibition” value is reported as inactive: -23%.
In the case of `COc1ccc(CN2CCc3ccc(NC(=O)CCc4ccccc4OC)cc3C2)c(O)c1`, the Potency is reported as active: 8.91 µM.
In the case of `Clc1cccc(Cl)c1/C=C/c1nc2ccccc2[nH]1`, the Potency is reported as inconclusive: 31.6 µM [inhibitor, single point].
For `O=C(COC(=O)/C=C/c1ccc(C(F)(F)F)cc1)NCC1CCCO1` (stereo not given), the Potency was inconclusive: 31.6 µM [inhibitor, single point].
In the case of `CC1(C)CC(NC(=O)C2CCN(S(=O)(=O)c3ccc(Cl)c(C(F)(F)F)c3)CC2)CC(C)(C)N1`, the Potency is reported as inconclusive: 10 µM [inhibitor, partial curve].
For `CC(=O)c1c(N2CCN(Cc3ccccc3)CC2)[nH]c(-c2ccccc2)nc1=S`, the “activity change, negative = inhibition” value was inactive: -4.64%.
For `COc1cccc(C2CC3(CC(C)(C)NC(=S)N3)Oc3cc(O)ccc32)c1` (stereo not given), the Potency was inconclusive: 31.6 µM [inhibitor, single point].
For `Cc1ccc(Cn2c(SCC(C)C)nc3c2c(=O)n(C)c(=O)n3C)cc1`, the Potency was inconclusive: 10 µM [inhibitor, partial curve].
For `Nc1c(Br)cc2c3c(cccc13)-c1ccccc1-2`, the Potency was active: 2.82 µM.
In the case of `CCOc1ccc(OCc2ccc(C(=O)N/N=C(\C)c3ccccn3)cc2)cc1`, the Potency is reported as inconclusive: 3.55 µM [inhibitor, partial curve].
For `CCOC(=O)c1sc2nc(C)c3c(c2c1N)CC(C)(C)OC3`, the Potency was inconclusive: 5.62 µM [inhibitor, single point].
In the case of `CS(=O)(=O)Cc1nc2ccccc2oc1=O`, the “activity change, negative = inhibition” value is reported as inactive: -19.5%.
With `COc1cc(OC)cc(C(=O)NC(C(=O)Nc2ccc3c(c2)OCO3)C(C)C)c1` (stereo not given) the Potency was inconclusive: 22.4 µM [inhibitor, single point].
In the case of `CCCc1nc(SCc2cccnc2)c2c(=O)n(C)c(=O)n(C)c2n1`, the Potency is reported as active: 10 µM.
In the case of `Cc1nc(N2CCc3ccccc3C2)[nH]c(=O)c1Cc1ccccc1`, the “activity change, negative = inhibition” value is reported as inactive: -1.18%.
For `COc1cc(/C=N/NC(=O)NC23CC4CC(CC(C4)C2)C3)ccc1OCC(N)=O`, the Potency was inconclusive: 22.4 µM [inhibitor, single point].
With `COC(=O)c1ccc(C(=O)N(Cc2ccccc2)c2ccccc2)cc1` the Potency was inconclusive: 12.6 µM [inhibitor, single point].
With `O=C(Cc1ccc(Cl)cc1Cl)Nc1ccncc1Cl` the Potency was active: 7.94 µM.
With `CSc1ccc(NC(=O)NCCCN2CCC(Cc3ccccc3)CC2)cc1` the Potency was active: 10 µM.
In the case of `O=[N+]([O-])c1ccc(/C=N/Nc2cc(Cl)nc(-c3ccccc3)n2)cc1`, the Potency is reported as inconclusive: 3.55 µM [inhibitor, full curve].
In the case of `O=C(CNC(=O)C1COc2ccccc2O1)N/N=C/c1ccc([N+](=O)[O-])cc1` (stereo not given), the Potency is reported as inconclusive: 14.1 µM [inhibitor, single point].
With `COC(=O)C1=C(c2ccccc2OCc2ccccc2)C[C@@H]2CC[C@H]1N2C(=O)NC1CCN(Cc2ccccc2)CC1` the Potency was inconclusive: 22.4 µM [inhibitor, single point].
For `CS/C(N)=N/N=C/c1c(O)ccc2ccccc12`, the Potency was inconclusive: 22.4 µM [inhibitor, single point].
With `COc1ccc2c(c1)CCC(C)N2C(=O)C(=O)c1c[nH]c2ccccc12` (stereo not given) the Potency was inconclusive: 14.1 µM [inhibitor, single point].
In the case of `CCc1nn(CCCC(=O)NCc2cc(Br)ccc2OC)c(=O)c2cc3occc3n12`, the Potency is reported as active: 10 µM.
For `NC(=O)COc1cccc2cccnc12`, the “activity change, negative = inhibition” value was inactive: 8.52%.
With `O=c1[nH]c(=O)n(C2CC(O)C(CO)O2)cc1Br` (stereo not given) the “activity change, negative = inhibition” value was inactive: 1.33%.
For `COc1ccc2nc(Nc3nc4ccc(NC(C)=O)cc4s3)sc2c1`, the Potency was active: 12.6 µM.
In the case of `O=C(c1ccc(Cl)cc1)N1N=C(c2ccccn2)CC1(O)C(F)(F)F` (stereo not given), the Potency is reported as inconclusive: 14.1 µM [inhibitor, single point].
With `CC(C)N1CCc2c(sc(NC(=O)c3cc4cc([N+](=O)[O-])ccc4s3)c2C(N)=O)C1` the Potency was inconclusive: 31.6 µM [inhibitor, single point].
With `N#Cc1c(-c2ccc(Cl)cc2Cl)nc2n(c1=O)CCS2` the Potency was inconclusive: 31.6 µM [inhibitor, single point].
In the case of `Cc1cc(=O)n(C)c(=O)n1CCCNc1ccccc1`, the Potency is reported as inconclusive: 22.4 µM [inhibitor, single point].
